# Where “and” joins values, the source holds several entries; their conditions need not be identical. Equal entries are not always repeated. Inconclusive means that the source gave no clear call. Such entries were picked first, then a sample of the others. For some of these results: Potencies of inconclusive entries are doubtful fits and often do not repeat. Where a structure was tested more than once in an assay, its records may differ in their call. Calls of active or inactive are those of the source. Unless noted, calls follow the shape of the dose curve; as a rule, active = well fitted curve in the direction sought with a large enough effect in the repeat runs; inconclusive = weak or mixed curves; inactive = no such curve, though single readings can be large; an effect the other way counts as inactive or inconclusive.
# Columns and labels:
# [1] = qHTS assay to identify small molecule antagonists of the retinoic acid receptor (RAR) signaling pathway (AID 1159552; also: nearly all actives have a fitted effect of over 50% in size)
# How it was run: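 Luminescence from a RARE luciferase reporter in C3RL4 cells served as read-out. Cells received compounds together with 1 uM final retinol and incubated 6 hr at 37 C before detection reagent was added for 30 min at room temperature.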
# [2] = qHTS assay to identify small molecule agonists of the retinoic acid receptor (RAR) signaling pathway (AID 1159553); conditions: C3RL4 RARE luciferase reporter, agonist, 6 h; activation: at 73.3 µM (top of the series) unless noted
# How it was run: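 Agonist activity was scored in C3RL4 cells bearing a retinoic acid response element luciferase construct. Cells were treated with compounds for 6 hr at 37 C, and luciferase signal was measured as luminescence.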
# [3] = biological target: Nuclear receptor subfamily 1 group I member 3 (Homo sapiens) (UniProt Q14994); test: qHTS assay to identify small molecule antagonists of the constitutive androstane receptor (CAR) signaling pathway (AID 1224838); also: nearly all actives have a fitted effect of over 40% in size
# How it was run: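 Compounds were titrated across 15 concentrations onto HepG2 cells double-stably expressing hCAR and a CYP2B6-2.2kb reporter, together with 50 nM CITCO (final). After 24 h at 37 C, luciferase activity was measured by luminescence.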
# [4] = qHTS assay to identify small molecule agonists of the hypoxia (HIF-1) signaling pathway - cell viability counter screen (AID 1224844; calls by dose curve; also: nearly all actives have a fitted effect of over 50% in size)
# How it was run: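 Tox21 10K compounds were added to HRE-bla ME-180 cells (0.5% dialyzed FBS) and incubated 17 hrs at 37C; ATP-based CellTiter-Glo luminescence then reported cell viability in the same wells.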
# [5] = qHTS assay to identify small molecule antagonists of the constitutive androstane receptor (CAR) signaling pathway - cell viability counter screen (AID 1224837); also: nearly all actives have a fitted effect of over 45% in size
# How it was run: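 Multiplexed cytotoxicity read-out for the CAR antagonist screen: double-stable HepG2-CYP2B6-hCAR cells co-treated with 50 nM CITCO (final) and compound over 15 concentrations, incubated 23 hr, then assessed by CellTiter-Fluor fluorescence.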
# [6] = qHTS assay to identify small molecule antagonists of the estrogen related receptor signaling pathway with the pleiotropic PPARgamma coactivator (PGC) from Tox21 10K library - cell viability counter screen (AID 1224840; active = well fitted cell-killing curve with a large enough effect in the repeat runs, not every such curve was filed as active; inconclusive = weak or mixed curves, or effect the other way; inactive = no such curve, though single readings can be large or run the other way; also: nearly all actives have a fitted effect of over 40% in size)
# How it was run: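 Step one, plate 2,000 PGC/ERR cells per well; step two, incubate 6 h at 37 C/5% CO2; step three, pin-transfer compounds; step four, incubate 17.5 h; step five, add CellTiter-Fluor and read fluorescence after 30 min.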
# [7] = biological target: Thyrotropin receptor (Homo sapiens) (UniProt P16473); test: qHTS assay to identify small molecule agonists of the thyroid stimulating hormone receptor (TSHR) signaling pathway (AID 1224843; calls by dose curve; also: nearly all actives have a fitted effect of over 45% in size; as to activation: % is scaled to controls: 0 for no effect and ±100 for the full control effect); conditions: TSHR-HEK293 cells, cAMP HTRF, agonist mode, 30 min; activation: at 92.4 µM (top of the series) unless noted
# How it was run: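 TSHR-HEK293 cells in agonist mode, 30 min room-temperature step, then cAMP measured by competitive HTRF (cAMP-d2 with anti-cAMP cryptate) after 1 h at room temperature. Tested at 15 concentrations in triplicate.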
# [8] = qHTS assay to identify small molecule agonists of the constitutive androstane receptor (CAR) signaling pathway - cell viability counter screen (AID 1224836); also: nearly all actives have a fitted effect of over 45% in size
# How it was run: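 Viability read-out: CellTiter-Fluor fluorescence after 23 h compound exposure at 37 C/5% CO2 in double-stable HepG2-CYP2B6-hCAR cells, with PK11195 present at 0.75 uM final; compounds tested in 15-point titration.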
# [9] = qHTS assay to identify small molecule antagonists of the estrogen related receptor signaling pathway with the pleiotropic PPARgamma coactivator (PGC) from Tox21 10K library (AID 1224841; call rule not given here; also: actives are mostly falling curves and most rising ones were filed inactive; nearly all actives have a fitted effect of over 50% in size)
# How it was run: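 Antagonism in this quantitative HTS is taken from loss of luciferase signal in PGC/ERR cells. Cells (2,000/well) are treated with compounds in DMSO after a 6 h settling period and read by One-Glo luminescence after 18 h.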
# [10] = qHTS assay to identify small molecule antagonists of the estrogen related receptor (ERR) signaling pathway from Tox21 library - cell viability counter screen (AID 1224834); also: nearly all actives have a fitted effect of over 30% in size
# How it was run: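 Cytotoxicity of test substances is gauged in the same ERR cells used for the antagonist screen, after 17.5 h of compound treatment at 37 C, by CellTiter-Fluor fluorescence measured after 30 min.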
# [11] = biological target: Luciferin 4-monooxygenase (Photinus pyralis) (UniProt P08659); test: qHTS assay to identify small molecule inhibitors of firefly luciferase (AID 1224835); also: nearly all actives have a fitted effect of over 25% in size
# How it was run: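 Biochemical qHTS: compounds run as interplate titrations against purified firefly enzyme, with D-luciferin and ATP each at its KM concentration. Light output recorded by CCD imaging.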
# [12] = biological target: Nuclear receptor subfamily 1 group I member 3 (Homo sapiens) (UniProt Q14994); test: qHTS assay to identify small molecule agonists of the constitutive androstane receptor (CAR) signaling pathway (AID 1224839); also: nearly all actives have a fitted effect of over 15% in size
# How it was run: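 Luminescence read-out (ONE-Glo, 30 min, room temperature) from double-stable HepG2-CYP2B6-hCAR cells exposed 24 h to 15-point compound series in presence of 0.75 uM PK11195 final.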
# Potency is read from the fitted curve at half-maximal effect; tags tell the direction and shape of the fitted curve or compound fluorescence and quenching.
# Chain of UniProt Q14994 (Q14994 whole entry, looked up): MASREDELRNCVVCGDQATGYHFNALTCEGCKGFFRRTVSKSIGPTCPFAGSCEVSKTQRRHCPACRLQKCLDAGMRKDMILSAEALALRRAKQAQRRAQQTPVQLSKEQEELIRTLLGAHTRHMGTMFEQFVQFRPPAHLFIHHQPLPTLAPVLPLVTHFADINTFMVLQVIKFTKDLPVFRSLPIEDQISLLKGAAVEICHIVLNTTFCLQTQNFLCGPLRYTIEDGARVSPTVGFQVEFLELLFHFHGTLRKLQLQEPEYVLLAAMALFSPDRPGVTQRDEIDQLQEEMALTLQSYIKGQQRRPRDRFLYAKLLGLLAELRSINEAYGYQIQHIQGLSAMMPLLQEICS
# Chain of UniProt P16473 (P16473 whole entry, looked up): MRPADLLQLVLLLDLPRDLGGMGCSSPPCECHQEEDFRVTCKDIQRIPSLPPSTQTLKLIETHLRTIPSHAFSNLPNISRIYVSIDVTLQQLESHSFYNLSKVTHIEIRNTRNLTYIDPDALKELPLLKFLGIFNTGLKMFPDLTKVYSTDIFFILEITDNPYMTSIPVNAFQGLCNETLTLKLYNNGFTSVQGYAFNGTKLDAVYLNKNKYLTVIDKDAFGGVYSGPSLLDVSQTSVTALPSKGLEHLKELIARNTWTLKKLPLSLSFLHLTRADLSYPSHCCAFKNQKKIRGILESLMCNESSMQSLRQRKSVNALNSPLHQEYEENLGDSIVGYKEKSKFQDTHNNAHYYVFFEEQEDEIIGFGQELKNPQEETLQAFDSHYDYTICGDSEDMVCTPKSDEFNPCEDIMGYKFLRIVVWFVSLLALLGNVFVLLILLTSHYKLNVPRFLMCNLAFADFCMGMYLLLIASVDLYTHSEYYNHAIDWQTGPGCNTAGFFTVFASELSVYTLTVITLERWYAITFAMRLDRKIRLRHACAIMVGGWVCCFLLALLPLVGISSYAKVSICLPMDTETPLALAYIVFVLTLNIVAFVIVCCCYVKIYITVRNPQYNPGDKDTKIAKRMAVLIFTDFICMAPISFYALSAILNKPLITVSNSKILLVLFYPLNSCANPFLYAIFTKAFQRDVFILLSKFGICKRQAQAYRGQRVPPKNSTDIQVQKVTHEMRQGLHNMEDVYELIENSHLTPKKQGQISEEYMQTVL
# Chain of UniProt P08659 (P08659 whole entry, looked up): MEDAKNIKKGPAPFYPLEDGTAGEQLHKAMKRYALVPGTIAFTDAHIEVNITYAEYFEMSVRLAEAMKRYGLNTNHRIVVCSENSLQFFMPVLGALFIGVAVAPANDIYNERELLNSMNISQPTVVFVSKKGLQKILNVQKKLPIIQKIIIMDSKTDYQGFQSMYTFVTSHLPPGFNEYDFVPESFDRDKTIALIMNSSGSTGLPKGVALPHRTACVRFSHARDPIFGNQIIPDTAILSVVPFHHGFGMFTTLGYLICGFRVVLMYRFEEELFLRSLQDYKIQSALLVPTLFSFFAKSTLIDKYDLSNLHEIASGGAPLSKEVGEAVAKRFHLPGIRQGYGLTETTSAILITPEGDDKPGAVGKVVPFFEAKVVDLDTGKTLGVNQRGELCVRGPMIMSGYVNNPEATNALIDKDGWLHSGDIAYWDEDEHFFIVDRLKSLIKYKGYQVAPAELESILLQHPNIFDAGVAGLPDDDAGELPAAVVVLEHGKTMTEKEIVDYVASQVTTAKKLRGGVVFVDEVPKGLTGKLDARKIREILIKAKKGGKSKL
compound,measurement,setting,value
CC1CCCNC1 (stereo unspecified),Potency,[1],"inconclusive: 67.1 µM [inhibitor, single point]"
same,Potency,[2],"inconclusive: 21.2 µM [inhibitor, full curve]"
same,Potency,[3],"inconclusive: 67.1 µM [inhibitor, partial curve, poor fit]"
same,Potency,[4],"inconclusive: 60.4 µM [cytotoxic, single point]"
Clc1ccc(C(Cn2ccnc2)OCc2c(Cl)cccc2Cl)c(Cl)c1 (stereo unspecified),Potency,[1],"inconclusive: 33.5 µM [inhibitor, single point]"
same,Potency,[2],inconclusive: 13.3 µM [activator]
same,Potency,[5],"inconclusive: 29.8 µM [cytotoxic, single point]"
same,Potency,[6],"inconclusive: 33.5 µM [cytotoxic, single point]"
same,activation,[7],inconclusive: 24.8% [at 42.5 µM]
same,Potency,[4],active: 23.9 µM
CCCCCCCCNC(C)C(O)c1ccc(SC(C)C)cc1 (stereo unspecified),Potency,[1],active: 13.3 µM
same,Potency,[2],"inconclusive: 26.6 µM [inhibitor, partial curve]"
same,Potency,[8],active: 29.8 µM
same,Potency,[6],active: 29.8 µM
same,Potency,[9],"inconclusive: 33.5 µM [falling, single point]"
same,Potency,[7],"inconclusive: 8.41 µM [activator, full curve]"
CC(C)(C)CC(C)(C)c1ccccc1O,Potency,[1],active: 27.4 µM
same,Potency,[2],inconclusive: 61.4 µM [inhibitor]
same,Potency,[10],"inconclusive: 27.4 µM [cytotoxic, single point]"
same,Potency,[3],"inconclusive: 6.89 µM [inhibitor, full curve]"
same,Potency,[4],"inconclusive: 55.2 µM [cytotoxic, single point]"
CC1=C(/C=C/C(C)=C/C=C/C(C)=C/C=O)C(C)(C)CCC1,Potency,[1],"inconclusive: 76.5 µM [inhibitor, single point]"
same,Potency,[2],active: 0.542 µM
same,Potency,[11],"inconclusive: 70.6 µM [inhibitor, partial curve]"
same,Potency,[8],active: 54.2 µM
same,Potency,[3],"inconclusive: 76.5 µM [inhibitor, single point]"
same,Potency,[4],active: 30.7 µM
O=C(N[C@H](CO)[C@H](O)c1ccc([N+](=O)[O-])cc1)C(Cl)Cl,Potency,[1],"inconclusive: 54.5 µM [inhibitor, partial curve]"
CC/C(=C(/c1ccc(O)cc1)c1ccc(OCCN(C)C)cc1)c1ccccc1,Potency,[1],active: 18 µM
same,Potency,[2],"inconclusive: 40.3 µM [inhibitor, partial curve]"
same,Potency,[10],active: 32 µM
same,Potency,[9],inconclusive: 45.2 µM
same,Potency,[7],"inconclusive: 28.5 µM [activator, partial curve]"
same,Potency,[4],"inconclusive: 36.2 µM [cytotoxic, single point]"
Cc1cc(CCN2CCN(c3nsc4ccccc34)CC2)cc2c1NC(=O)CC2(C)C,Potency,[1],active: 30.6 µM
same,Potency,[2],"inconclusive: 68.6 µM [inhibitor, single point]"
same,Potency,[11],inactive
same,Potency,[8],active: 48.6 µM
same,Potency,[5],active: 54.5 µM
CC(C)(C)c1ccc(O)c(C(C)(C)C)c1,Potency,[1],"inconclusive: 15.3 µM [inhibitor, full curve] and inconclusive: 12.2 µM [inhibitor, partial curve]"
same,Potency,[2],"inconclusive: 61.1 µM [inhibitor, partial curve, poor fit]"
same,Potency,[8],"inconclusive: 68.3 µM [cytotoxic, single point]"
same,Potency,[5],"inconclusive: 48.4 µM [cytotoxic, partial curve, poor fit]"
same,Potency,[3],"inconclusive: 34.2 µM [inhibitor, partial curve]"
same,Potency,[6],"inconclusive: 38.4 µM [cytotoxic, partial curve] and inconclusive: 61.1 µM [cytotoxic, partial curve]"
same,Potency,[9],active: 54.3 µM
same,Potency,[4],inconclusive: 54.9 µM [cytotoxic]
C=C1C(CCl)(CCl)C2(Cl)C(Cl)C(Cl)C1(Cl)C2(Cl)Cl (stereo unspecified),Potency,[1],"inconclusive: 67.8 µM [inhibitor, single point]"
same,Potency,[2],inconclusive: 76 µM [inhibitor]
same,Potency,[10],"inconclusive: 67.8 µM [cytotoxic, single point]"
same,Potency,[12],active: 8.53 µM
same,Potency,[7],active: 17 µM
same,Potency,[4],active: 24.3 µM
CN(C)CCOc1ccc(/C(=C(/CCCl)c2ccccc2)c2ccccc2)cc1,Potency,[1],active: 57.2 µM
same,Potency,[2],inconclusive: 57.2 µM [inhibitor]
same,Potency,[10],active: 51 µM
same,Potency,[8],"inconclusive: 57.2 µM [cytotoxic, single point]"
same,Potency,[5],"inconclusive: 57.2 µM [cytotoxic, single point]"
same,Potency,[3],"inconclusive: 57.2 µM [inhibitor, single point]"
same,Potency,[6],active: 57.2 µM
same,Potency,[4],active: 40.9 µM
